# Data published in the supplement of paper PMC8728848.
# Some of the results follow.
# B1: CFEM-SCL (Saccharomyces cerevisiae), O13547 (protein)
# chain: MRATTLLSSVVSLALLSKEVLATPPACLLACVAQVGKSSSTCDSLNQVTCYCEHENSAVKKCLDSICPNNDADAAYSAFKSSCSEQNASLGD
# Key:
# Assay in all cases: glycan array binding signal (z-score within array); higher = stronger binding
# Settings in all cases: glycan notation: IUPAC condensed, linker removed
# [1] = target: Fuc(a1-2)Gal
# Summary of the method: (§1)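 Columns mapping to the same glycan were averaged after glycan names were converted to IUPAC-condensed notation. The data come from 3228 arrays in the Consortium for Functional Glycomics database, limited to those with an available protein sequence. Binding is reported as a within-array Z-score averaged across arrays of one protein sequence and across linkers.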
# [2] = target: Fuc(a1-2)Gal(b1-3)GalNAc
# Summary of the method: as §1
# [3] = target: Fuc(a1-2)Gal(b1-3)GalNAc(a1-3)[Fuc(a1-2)]Gal(b1-4)Glc
# Summary of the method: as §1
# [4] = target: Fuc(a1-2)Gal(b1-3)GalNAc(a1-3)[Fuc(a1-2)]Gal(b1-4)GlcNAc
# Summary of the method: as §1
# [5] = target: Fuc(a1-2)Gal(b1-3)GalNAc(b1-3)Gal
# Summary of the method: as §1
# [6] = target: Fuc(a1-2)Gal(b1-3)GalNAc(b1-3)Gal(a1-4)Gal(b1-4)Glc
# Summary of the method: as §1
# [7] = target: Fuc(a1-2)Gal(b1-3)GalNAc(b1-4)[Neu5Ac(a2-3)]Gal(b1-4)Glc
# Summary of the method: as §1
# [8] = target: Fuc(a1-2)Gal(b1-3)GlcNAc
# Summary of the method: as §1
# [9] = target: Fuc(a1-2)Gal(b1-3)GlcNAc(b1-2)Man(a1-3)[Fuc(a1-2)Gal(b1-3)GlcNAc(b1-2)Man(a1-6)]Man(b1-4)GlcNAc(b1-4)GlcNAc
# Summary of the method: as §1
# [10] = target: Fuc(a1-2)Gal(b1-3)GlcNAc(b1-2)Man(a1-3)[Fuc(a1-2)Gal(b1-3)GlcNAc(b1-2)Man(a1-6)]Man(b1-4)GlcNAc(b1-4)[Fuc(a1-6)]GlcNAc
# Summary of the method: as §1
# [11] = target: Fuc(a1-2)Gal(b1-3)GlcNAc(b1-3)Gal(b1-4)Glc
# Summary of the method: as §1
# [12] = target: Fuc(a1-2)Gal(b1-3)GlcNAc(b1-3)GalNAc
# Summary of the method: as §1
# [13] = target: Fuc(a1-2)Gal(b1-3)GlcNAc(b1-3)[Fuc(a1-2)Gal(b1-3)GlcNAc(b1-6)]GalNAc
# Summary of the method: as §1
# [14] = target: Fuc(a1-2)Gal(b1-3)GlcNAc(b1-3)[Gal(b1-4)GlcNAc(b1-6)]Gal(b1-4)Glc
# Summary of the method: as §1
# [15] = target: Fuc(a1-2)Gal(b1-3)GlcNAc(b1-3)[Neu5Ac(a2-6)Gal(b1-4)GlcNAc(b1-6)]Gal(b1-4)Glc
# Summary of the method: as §1
# [16] = target: Fuc(a1-2)Gal(b1-3)GlcNAc6S
# Summary of the method: as §1
# [17] = target: Fuc(a1-2)Gal(b1-3)[Fuc(a1-4)]GlcNAc
# Summary of the method: as §1
# [18] = target: Fuc(a1-2)Gal(b1-3)[Fuc(a1-4)]GlcNAc(b1-2)Man(a1-3)[Fuc(a1-2)Gal(b1-3)[Fuc(a1-4)]GlcNAc(b1-2)Man(a1-3)]Man(b1-4)GlcNAc(b1-4)GlcNAc
# Summary of the method: as §1
# [19] = target: Fuc(a1-2)Gal(b1-3)[Fuc(a1-4)]GlcNAc(b1-2)Man(a1-3)[Fuc(a1-2)Gal(b1-3)[Fuc(a1-4)]GlcNAc(b1-2)Man(a1-6)]Man(b1-4)GlcNAc(b1-4)[Fuc(a1-6)]GlcNAc(b1-4)[Fuc(a1-6)]GlcNAc
# Summary of the method: as §1
# [20] = target: Fuc(a1-2)Gal(b1-3)[Fuc(a1-4)]GlcNAc(b1-3)[Fuc(a1-3)[Gal(b1-4)]GlcNAc(b1-6)]Gal(b1-4)Glc
# Summary of the method: as §1
# [21] = target: Fuc(a1-2)Gal(b1-3)[Fuc(a1-4)]GlcNAc(b1-3)[Gal(b1-4)GlcNAc(b1-6)]Gal(b1-4)Glc
# Summary of the method: as §1
# [22] = target: Fuc(a1-2)Gal(b1-4)Fuc(a1-3)]GlcNAc(b1-2)Man(a1-3)[Fuc(a1-2)Gal(b1-4)[Fuc(a1-3)]GlcNAc(b1-2)Man(a1-6)]Man(b1-4)GlcNAc(b1-4)GlcNAc
# Summary of the method: as §1
# [23] = target: Fuc(a1-2)Gal(b1-4)Glc
# Summary of the method: as §1
# [24] = target: Fuc(a1-2)Gal(b1-4)Glc6S
# Summary of the method: as §1
# [25] = target: Fuc(a1-2)Gal(b1-4)GlcNAc
# Summary of the method: as §1
# [26] = target: Fuc(a1-2)Gal(b1-4)GlcNAc(b1-2)Man
# Summary of the method: as §1
# [27] = target: Fuc(a1-2)Gal(b1-4)GlcNAc(b1-2)Man(a1-3)[Fuc(a1-2)Gal(b1-4)GlcNAc(b1-2)Man(a1-6)]Man(b1-4)GlcNAc(b1-4)GlcNAc
# Summary of the method: as §1
# [28] = target: Fuc(a1-2)Gal(b1-4)GlcNAc(b1-2)Man(a1-3)[Fuc(a1-2)Gal(b1-4)GlcNAc(b1-2)Man(a1-6)]Man(b1-4)GlcNAc(b1-4)[Fuc(a1-6)]GlcNAc
# Summary of the method: as §1
# [29] = target: Fuc(a1-2)Gal(b1-4)GlcNAc(b1-2)[Fuc(a1-2)Gal(b1-4)GlcNAc(b1-4)]Man(a1-3)[Fuc(a1-2)Gal(b1-4)GlcNAc(b1-2)Man(a1-6)]Man(b1-4)GlcNAc(b1-4)GlcNAc
# Summary of the method: as §1
# [30] = target: Fuc(a1-2)Gal(b1-4)GlcNAc(b1-3)Gal(b1-4)GlcNAc
# Summary of the method: as §1
binder,measurement,setting,value
B1,glycan array binding signal (z-score),[1],-0.18
same,glycan array binding signal (z-score),[2],-0.187
same,glycan array binding signal (z-score),[3],-0.253
same,glycan array binding signal (z-score),[4],-0.236
same,glycan array binding signal (z-score),[5],0.142
same,glycan array binding signal (z-score),[6],-0.265
same,glycan array binding signal (z-score),[7],-0.065
same,glycan array binding signal (z-score),[8],-0.274
same,glycan array binding signal (z-score),[9],-0.258
same,glycan array binding signal (z-score),[10],-0.233
same,glycan array binding signal (z-score),[11],-0.221
same,glycan array binding signal (z-score),[12],-0.316
same,glycan array binding signal (z-score),[13],-0.151
same,glycan array binding signal (z-score),[14],-0.177
same,glycan array binding signal (z-score),[15],-0.29
same,glycan array binding signal (z-score),[16],-0.196
same,glycan array binding signal (z-score),[17],-0.113
same,glycan array binding signal (z-score),[18],1.35
same,glycan array binding signal (z-score),[19],-0.049
same,glycan array binding signal (z-score),[20],-0.173
same,glycan array binding signal (z-score),[21],-0.192
same,glycan array binding signal (z-score),[22],0.279
same,glycan array binding signal (z-score),[23],-0.068
same,glycan array binding signal (z-score),[24],-0.148
same,glycan array binding signal (z-score),[25],-0.237
same,glycan array binding signal (z-score),[26],-0.399
same,glycan array binding signal (z-score),[27],-0.273
same,glycan array binding signal (z-score),[28],-0.211
same,glycan array binding signal (z-score),[29],-0.213
same,glycan array binding signal (z-score),[30],-0.297
